Measurements reported in PubChem BioAssay AID488896 (Broad Institute, 2010).
Hit rate of the full screen: of about 320,000 compounds, about 3,100 (0.97%) were called active. Inconclusive means that the source gave no clear call. Such entries were picked first, then a sample of the others.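 How the source made its calls: active means mean replicate inhibition of at least 70% and a set share of replicates each scoring 70 or more; inconclusive means meets just one of the two criteria; inactive means fails both criteria.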

biological target: Scavenger receptor class B member 1 (Mus musculus) (UniProt Q61009); assay: inhibitors of SR-BI mediated HDL lipid uptake, primary screen, ldlA[mSR-BI] cells, fluorescence, single point (AID 488896); details: ldlA[mSR-BI] CHO cells, DiI-HDL uptake fluorescence, 3 h; at 12.5 µM; stronger effect = higher value;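 further: 0% = median of neutral control wells and 100% = median of positive control wells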
UniProt Q61009, sequence (Q61009 whole entry, looked up): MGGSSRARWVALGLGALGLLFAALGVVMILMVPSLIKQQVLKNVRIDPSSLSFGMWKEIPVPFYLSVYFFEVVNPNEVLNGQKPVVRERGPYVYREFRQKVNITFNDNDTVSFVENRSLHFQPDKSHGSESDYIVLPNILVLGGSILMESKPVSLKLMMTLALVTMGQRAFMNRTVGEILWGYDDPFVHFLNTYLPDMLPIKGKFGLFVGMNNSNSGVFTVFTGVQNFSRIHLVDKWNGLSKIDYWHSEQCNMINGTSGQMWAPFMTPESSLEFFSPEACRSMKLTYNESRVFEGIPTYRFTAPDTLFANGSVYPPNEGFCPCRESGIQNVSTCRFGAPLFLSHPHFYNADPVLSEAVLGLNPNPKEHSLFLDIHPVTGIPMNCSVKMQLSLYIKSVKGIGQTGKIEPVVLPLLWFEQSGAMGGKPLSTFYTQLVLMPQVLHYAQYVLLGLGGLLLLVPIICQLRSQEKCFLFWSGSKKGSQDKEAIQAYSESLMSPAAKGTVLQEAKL

SMILES | inhibition
NC(=S)N/N=C/c1c[nH]c2ccc(OCc3ccccc3)cc12 | inconclusive: 77.5%
CN(C(=O)c1cccc(NC(=O)Cc2ccc(NC(=O)C3CCN(C(=O)C4CCCCC4)CC3)cc2)c1)C1CC1 | inactive: 15.8%
CN(C(=O)c1cccc(NC(=O)Cc2ccc(NC(=O)C3CCCN(C(=O)C4CCCC4)C3)cc2)c1)C1CCCCC1 (stereo not drawn) | active: 83.4%
COc1ccc(C2=Nn3c(nnc3-c3ccc(OC)cc3)SC2)cc1 | inconclusive: 71.7%
CCOc1ccc(C(=O)OCC(=O)Nc2cc(C)on2)cc1OCC | inactive: -21.2%
O=C(N/N=C/c1c[nH]c2ccccc12)c1cc(-c2ccc(-c3ccccc3)cc2)n[nH]1 | active: 93.8%
Cc1cccc(Cn2c(=O)c3c(nc4n3CCN4Cc3ccco3)n(C)c2=O)c1 | inactive: 17.7%
COc1ccc(COc2cc(-c3cccc(OC)c3)nc3ccc(NC(=O)c4ccccc4)cc23)cc1 | inconclusive: 71.5%
COc1cccc(C2C=C(c3ccc(OC)cc3OC)Nc3nnnn32)c1 (stereo not drawn) | inactive: 49.2%
Cc1ccc(OCC(=O)Nc2ccc(N3CCCC3)cc2)cc1C | inconclusive: 71.3%
COCc1cc(=O)oc2cc(NC(=O)c3ccc(C(C)(C)C)cc3)ccc12 | inconclusive: 71.4%
C/C(=N\Nc1nc2c(s1)CCCC2)c1ccc(Cl)cc1 | inconclusive: 71%
C=CCN1C(=O)/C(=C2/Sc3ccc(OC)cc3N2C)SC1=Nc1ccccc1 | active: 96.1%
COc1ccc(CN2CCN(C(=O)c3ccc(S(=O)(=O)NCc4ccco4)cc3)CC2)cc1F | inconclusive: 72%
COc1ccc(NC(=O)c2c(Cl)n(C)c3ccccc23)cc1 | inconclusive: 72.6%
COc1ccc(-c2nc3c(s2)CCc2onc(-c4ccc(Br)cc4)c2-3)cc1 | inactive: 58.7%
Cc1cc(N/N=C\c2ccccc2)nc(-c2ccccc2O)n1 | inconclusive: 72.8%
COc1ccc(NC(=O)c2sc3nc(N4CCCC4)c4c(c3c2N)CC(C)(C)OC4)c(OC)c1 | inconclusive: 73.2%
Cc1ccc(N/N=C(\C#N)C(=O)c2ccsc2)cc1 | inactive: -13.3%
COc1cccc(-c2nc(CS(=O)(=O)CC(=O)NCCc3ccc(OC)cc3OC)c(C)o2)c1 | inconclusive: 71.7%
Cc1sc(NC(=O)c2cccc([N+](=O)[O-])c2)c(C(N)=O)c1-c1ccc(C(C)(C)C)cc1 | active: 77.1%

SMILES | inhibition
O=C1/C(=C/c2ccc([N+](=O)[O-])cc2)C=C(c2ccccc2)N1c1ccc(O)cc1 | inconclusive: 72.8%
COc1cc2c(cc1OC)C(c1ccc(-c3cc(Cl)ccc3Cl)o1)=NCC2 | inconclusive: 78.9%
COc1ccc([N+](=O)[O-])cc1NC(=O)C(C)N(C)Cc1ccc(Br)cc1 (stereo not drawn) | active: 74.9%
O=C(Nc1ccc(NC(=O)c2ccco2)c(Cl)c1)c1cccc([N+](=O)[O-])c1 | inconclusive: 73.6%
CCCc1cc(-c2[nH]ncc2-c2ccc(C(=O)OCC)o2)c(O)cc1O | inconclusive: 70.3%
CCOC(=O)c1ccc(-n2c(C)nc3c(cnn3-c3ccc(Cl)cc3)c2=O)cc1 | inconclusive: 70.1%
CCOC(=O)Nc1ccc2c(COC(=O)c3ccccc3O)cc(=O)oc2c1 | inconclusive: 72.3%
N#C/C(C(N)=O)=c1/ccc2c(c1)N1C3=C(CCCC3)CC3CCCCC31N=2 (stereo not drawn) | inconclusive: 80.5%
Cc1cccc(N2CCN(C(=O)COc3ccc4c(C)cc(=O)oc4c3C)CC2)c1C | inconclusive: 71.5%
CCN(Cc1cccc(OC)c1)CC1CCCN(CCc2cccc(OC)c2)C1 (stereo not drawn) | inactive: -7.97%
COc1ccccc1CN1CCN(S(=O)(=O)c2ccc(C)cc2)CC1 | inactive: -28.3%
Oc1ccc(-c2csc(-c3c[nH]c4ccccc34)n2)c(O)c1 | inconclusive: 70.5%
COc1cccc(-c2nc(C(=O)NCC3CCCO3)cc3c2[nH]c2ccccc23)c1 (stereo not drawn) | inconclusive: 71%
O=C(Nc1ccc(F)cc1)Nc1cc(OCC(F)(F)F)cc(OCC(F)(F)F)c1 | inconclusive: 70.9%
O=C(COC(=O)C1CC2C=CC1C2)NCCc1ccccc1 (stereo not drawn) | inactive: -240%
CCOC(=O)CSc1ccc(C(=O)Nc2ccc(Cl)cc2)cn1 | inactive: -20.9%
COc1cc2oc3cc(C#Cc4ccc(N)cc4)ccc3c(=O)c2cc1OC | inconclusive: 70.7%
Cc1c(OC(C)C(=O)NCC2CCC(C(=O)O)CC2)ccc2c(-c3ccccc3)cc(=O)oc12 (stereo not drawn) | inconclusive: 70.3%
COc1ccccc1CC(=O)Nc1cc(OC)c(NC(=O)c2ccccc2)cc1OC | inconclusive: 74.4%
COc1ccccc1N1CCN(c2nc(-c3ccccc3)cc(C(F)(F)F)n2)CC1 | inconclusive: 73.1%
CCOC(=O)C1=C(CN2CCN(C(=O)OCC)CC2)NC(=O)NC1c1ccc2c(c1)OCO2 (stereo not drawn) | inconclusive: 71.8%

SMILES | inhibition
Cc1ccc(S(=O)(=O)/N=C2\C=C(Nc3ccc(O)cc3)C(=O)c3ccccc32)cc1 | inconclusive: 71.1%
Cc1nn(-c2ccccc2)c(N2CCCC2)c1/C=N/NC(=O)c1cc2ccccc2cc1O | inconclusive: 70.6%
CCC(C)[C@H](NC(=O)[C@@H]1Cc2c([nH]c3ccccc23)C2c3ccccc3C(=O)N21)C(=O)NCC1CCCO1 (stereo partly drawn) | inconclusive: 72.6%
COc1ccc(Cl)cc1C(=O)Nc1ccc(NC(=O)c2ccco2)cc1 | active: 82.2%
CCOC(=O)C1=C(C)NC(=S)NC1c1ccc(OCC(=O)N2CCCCCC2)c(OC)c1 (stereo not drawn) | inconclusive: 70.8%
O=C(COC(=O)c1cc(-c2cccc(Br)c2)nc2ccccc12)NCC1CCCO1 (stereo not drawn) | inactive: 38.6%
Cc1noc(C)c1COc1ccc(C(=O)N2CCN(c3ccccc3O)CC2)cc1 | inconclusive: 73.5%
COc1cc(OC)cc(C(=O)N[C@H](C(=O)Nc2nc(-c3cc(OC)ccc3OC)cs2)C(C)C)c1 | inconclusive: 70.8%
COCc1cc(C)nc(OCC(=O)N/N=C/c2ccc(O)cc2)c1C#N | inactive: 7.9%
CNC(=O)c1c(NC(=O)c2ccc(N3C(=O)CCC3=O)cc2)sc2c1CCCC2 | active: 86.5%
CCOc1ccc2nc3c(cc2c1)CN(CCOC)C(=NCCOC)S3 | inconclusive: 75.5%
CC1CC(C)CN(S(=O)(=O)c2cccc3cccnc23)C1 (stereo not drawn) | inactive: -5.99%
COc1ccc(NS(=O)(=O)c2ccc3oc(=O)ccc3c2)cc1 | inactive: -22.5%
CCc1ccc(-c2cc(C(=O)Nc3c(C)n(C)n(-c4ccccc4)c3=O)c3ccccc3n2)s1 | inconclusive: 70.7%
Nc1nonc1-n1nnc(C(=O)N/N=C/c2cc(Br)ccc2O)c1CSC1=NCCS1 | active: 104%
COc1ccc(Cl)cc1C(=O)NNC(=O)c1[nH]c(C)c(C(C)=O)c1C | inconclusive: 70.1%
Cc1ccc(NC(=O)c2cc(S(=O)(=O)N3CCOCC3)c(Br)s2)cc1 | inconclusive: 72.8%
COc1cc(/C=N/NC(=O)c2cccnc2)ccc1OCC(=O)Nc1c(C)cc(C)cc1C | active: 71%
COc1cc(/C=C/c2ccc3cccc(O)c3n2)cc(Br)c1OC | active: 82.4%
c1ccc2c(NCC3CCCO3)nc(-c3ccncc3)nc2c1 (stereo not drawn) | inconclusive: 72.9%
COc1ccc(C(=O)Nc2ccc(C)c(S(=O)(=O)N3CCCCCC3)c2)cc1 | active: 80.5%

SMILES | inhibition
COc1ccc(C(=O)n2nc(C)cc2Nc2ccccc2)cc1 | active: 76.6%
Cc1ccc(C(C#N)c2ccc3c(C(F)(F)F)cc(C(F)(F)F)nc3n2)cc1 (stereo not drawn) | inconclusive: 73.6%
CC(=O)c1ccc(N=C2SCCCN2C(=O)C2CCCC2)cc1 | inconclusive: 74.7%
CCN(CC)C(=O)COC(=O)c1cc(-c2ccc(OC)cc2)nc2ccccc12 | inconclusive: 72.9%
O=C(C1CCCCC1)N1CCN(c2ccccc2F)CC1 | inactive: -13%
CCOc1ccc(C(=O)Nc2cc(-c3nc4ccccc4[nH]3)ccc2Cl)cc1[N+](=O)[O-] | inconclusive: 70.1%
COc1ccc(NC(=S)N2CCN(CCN3C(=O)c4cccc5cccc(c45)C3=O)CC2)cc1 | inconclusive: 71.2%
O=C(NC1CC1)c1ccc(CN(c2ccccc2)S(=O)(=O)c2ccccc2)cc1 | inconclusive: 74.3%
COc1ccc(-c2cc(C(F)(F)F)nc(SCC(=O)NCc3cccs3)n2)cc1 | inconclusive: 70.3%
CCC1CN(C(=O)N2CCC(C(=O)NCCc3ccccc3OC)CC2)c2ccccc2O1 (stereo not drawn) | inconclusive: 70.4%
CC(=O)c1ccc(NC(=O)Nc2ccc([N+](=O)[O-])cc2)cc1 | inactive: -18.6%
O=C(/C=C/c1ccccc1[N+](=O)[O-])N1CCc2ccccc2C1 | inactive: 10.7%
O=[N+]([O-])c1ccc(COc2ccc(-c3[nH]ncc3-c3ccc(Cl)cc3)c(O)c2)cc1 | inconclusive: 70.5%
COc1ccc(CN(C)C(=O)c2oc3ccccc3c2CSC)cc1F | inactive: 32.3%
CC(=O)NN1CCc2cc3ccc(C)cc3nc21 | inactive: -1.56%
O=[N+]([O-])c1ccc(/C=N/N2CCN(Cc3ccccc3)CC2)cc1 | inactive: 2.41%
Cc1cc(C)cc(N(CCC#N)C(=O)COC(=O)CCc2c[nH]c3ccccc23)c1 | inconclusive: 73.8%
NC(=S)N/N=C1\CCSc2ccc(Cl)cc21 | active: 81.2%
Cc1ccc(NC(=O)COC(=O)C2(CC(=O)NC(C)(C)C)CCCC2)cc1C | inconclusive: 71%
c1ccc(Cn2nnc3c(Nc4ccc5c(c4)OCO5)nc(C4CC4)nc32)cc1 | inactive: 29.4%
